{
  "source": "PubChem BioAssay (NCATS)",
  "note": "The list shows a part of the results. Further columns of the screen follow, without active or inactive calls. Compounds called inactive in the main read-out are mostly missing here. Words in brackets tell the shape of the fitted curve; partial curves, single points and poor fits give uncertain potencies. Tags give direction and shape of the fitted curve.",
  "data": [
    {"target": "Histamine N-methyltransferase (Homo sapiens) (UniProt P50135)", "sequence (P50135 whole entry, looked up)": "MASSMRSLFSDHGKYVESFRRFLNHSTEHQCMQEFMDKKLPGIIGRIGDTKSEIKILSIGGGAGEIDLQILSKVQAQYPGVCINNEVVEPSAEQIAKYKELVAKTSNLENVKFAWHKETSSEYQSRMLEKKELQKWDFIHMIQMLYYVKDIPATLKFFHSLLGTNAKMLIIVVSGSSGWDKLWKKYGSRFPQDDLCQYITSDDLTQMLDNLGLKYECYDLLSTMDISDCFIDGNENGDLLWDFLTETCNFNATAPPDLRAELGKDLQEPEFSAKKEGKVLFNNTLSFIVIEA", "experiment": "Confirmatory Screen for Target Class Profiling of Small Molecule Inhibitors of Methyltransferases (AID 1745852);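 note: inhibitor potency for blocking SAH production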", "settings": "MTase-Glo luminescence, SAH detection, recombinant enzyme; measured here: HNMT inhibition potency", "values": [
      {"smiles": "Cn1c(=O)n(C)c2cc(S(=O)(=O)Nc3cc4c(cc3NCc3ccccc3)n(C)c(=O)n4C)ccc21", "IC50": "21.5 µM [falling, partial curve]"},
      {"smiles": "CCN(CCc1nc2ccc(C)cc2[nH]1)C(=O)c1ccccc1C1CCNC1", "note": "(stereo not drawn)", "IC50": "3.04 µM [falling, full curve]"},
      {"smiles": "COc1cccc(CN2CCCC3(CCN(c4cc(C)nc(N)n4)C3)C2)c1OC", "note": "(stereo not drawn)", "IC50": "19.2 µM [falling, partial curve]"},
      {"smiles": "O=C(OCc1ccccc1)N1CCOCC12CCN(Cc1c[nH]c3ccccc13)CC2", "IC50": "31.2 µM [falling, partial curve]"},
      {"smiles": "CN1CCC(N2CC[C@H](c3nc4ccc(C(F)(F)F)cc4[nH]3)C2)CC1", "IC50": "31.2 µM [falling, partial curve]"},
      {"smiles": "CCCn1c(C)cnc1CC1CCN(C(=O)NCc2ccc(OC)cc2)C1", "note": "(stereo not drawn)", "IC50": "17.1 µM [falling, partial curve]"},
      {"smiles": "CC1CCN(CCCNC(=O)CCc2nnc3n(Cc4ccccc4)c(=O)c4ccccc4n23)CC1", "IC50": "10.8 µM [falling, partial curve]"},
      {"smiles": "CCN1C(=O)c2ccccc2C1Nc1ccc(OCCN2CCCCC2)cc1", "note": "(stereo not drawn)", "IC50": "9.61 µM [falling, partial curve]"},
      {"smiles": "CC1CCCCN1CCNC(=O)Cn1ccc2cc(S(=O)(=O)N3CCCCC3)ccc21", "note": "(stereo not drawn)", "IC50": "21.5 µM [falling, partial curve]"},
      {"smiles": "COc1ccc(-c2cc(C(=O)NCc3cccnc3)c3c(c2)N(C)CCO3)cc1OC", "IC50": "31.2 µM [falling, partial curve]"},
      {"smiles": "CC1(C)[C@H](Cc2cc(-c3ccccc3)on2)C[C@@H]1NCC1CC1", "IC50": "35 µM [falling, partial curve]"},
      {"smiles": "Cc1cc(NC(=O)NCCN2CCC(O)(Cc3ccccc3)CC2)c2ccccc2n1", "IC50": "19.2 µM [falling, partial curve]"},
      {"smiles": "CC1CCCCN1CCCNC(=O)c1cc2c(s1)CN(C1CCCC1)C2", "note": "(stereo not drawn)", "IC50": "19.2 µM [falling, partial curve]"},
      {"smiles": "CN1CCC(c2c[nH]c3ccc(NC(=O)c4ccc(F)cc4)cc23)CC1", "IC50": "15.2 µM [falling, partial curve]"},
      {"smiles": "CCOC(=O)CCN(C(=O)c1ccc2c(c1)nc(CNc1ccc(C(=N)N)cc1)n2C)c1ccccn1", "IC50": "1.71 µM [falling, full curve]"},
      {"smiles": "N#Cc1cc(CN2CCCC(C(=O)Nc3cccc(-c4ccc(F)cc4)c3)C2)c[nH]1", "note": "(stereo not drawn)", "IC50": "24.1 µM [falling, partial curve]"},
      {"smiles": "Nc1c(NC/C=C\\COc2cc(CN3CCCCC3)ccn2)c(=O)c1=O", "IC50": "19.2 µM [falling, partial curve]"},
      {"smiles": "CNCCC(c1cccs1)c1ccc(O)c2ccccc12", "note": "(stereo not drawn)", "IC50": "9.61 µM [falling, partial curve]"},
      {"smiles": "CCC(=C(c1ccc(OCCN2CCCC2)cc1)c1ccc(OCCN2CCCC2)cc1)c1ccccc1", "IC50": "1.97 µM [falling, partial curve]"},
      {"smiles": "COc1cc2c(NC3CCN(C)CC3)nc(N3CCCN(C)CC3)nc2cc1OCCCN(C)C", "IC50": "21.7 µM [falling, partial curve]"},
      {"smiles": "CCN(CC)CCCNC(=O)CCc1nnc2n(Cc3ccc(Cl)cc3)c(=O)c3ccccc3n12", "IC50": "8.57 µM [falling, partial curve]"},
      {"smiles": "CN(C)C/C=C/C(=O)Nc1cccc(C(=O)Nc2ccc(Nc3nccc(-c4cccnc4)n3)cc2)c1", "IC50": "4.29 µM [falling, full curve]"},
      {"smiles": "COc1cccc(-c2ccccc2NC(=O)C2CCN(CC=C(C)C)CC2)c1", "IC50": "19.2 µM [falling, partial curve, poor fit]"},
      {"smiles": "CN(CCCNC(=O)Cn1ccc2cc(S(=O)(=O)N3CCCCC3)ccc21)C1CCCCC1", "IC50": "19.2 µM [falling, partial curve]"},
      {"smiles": "OC1(Cn2ccnc2)CCN(Cc2ccccc2Cn2cccn2)CC1", "IC50": "19.2 µM [falling, partial curve]"},
      {"smiles": "CCN(CC)CCNC(=O)CCc1nnc2n(Cc3ccc(Cl)cc3)c(=O)c3ccccc3n12", "IC50": "17.1 µM [falling, partial curve]"},
      {"smiles": "CC1CCCCN1CCNC(=O)CCc1nnc2n(Cc3ccc(F)cc3)c(=O)c3ccccc3n12", "note": "(stereo not drawn)", "IC50": "9.61 µM [falling, partial curve]"},
      {"smiles": "c1cc(NCCc2c[nH]c3ccccc23)cc(Nc2ccncc2)c1", "IC50": "0.341 µM [falling, full curve]"}
    ]}
  ]
}
